Screen size: about 43,000 compounds; about 200 (0.47%) were called active. Another 12% or so got no clear call; they are omitted. The call rests on the fitted dose curve; in most records, active means well fitted cell-killing curve with a large enough effect; inconclusive means small, poorly fitted or top-dose-only effect, or effect the other way; inactive means flat fitted curve, though single readings scatter. Some of the results follow.
Test: Cell viability qHTS assay in S16 Pmp22-F2sN cells; further: nearly all actives have a fitted effect of over 65% in size
Settings: S16 Pmp22-F2sN Schwann cells (luciferase reporters placed in the Pmp22 gene) viability, CellTiter-Glo, 24 h; series mostly up to 57.5 µM; activity change, negative = cytotoxicity: at the top concentration
How it was run: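 Luminescence from CellTiter-Glo, read by CCD camera after a 15 min room-temperature incubation, served as the viability signal. Reporter Schwann cells (S16 Pmp22-F2sN) had been treated with pin-transferred compounds for 24 h at 37C.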
On the % scale 0 is the no-effect control and ±100 the full control effect; potency means the concentration at half of the fitted maximal effect.

Row | SMILES | activity change, negative = cytotoxicity | Potency
1 | COc1cccc(CNc2nc3ccccc3c3nc(-c4cccc(C)c4)nn23)c1 | inactive: 7.73% | 
2 | CC(=O)c1cccc(NC(=O)Nc2c(C)n(C)n(-c3ccccc3)c2=O)c1 | inactive: -10.7% | 
3 | COc1ccc(-c2cc(-c3ccccc3)nc(SCC(=O)Nc3ccccc3C)c2C#N)cc1 | inactive: -1.69% | 
4 | Cc1ccc(CN(Cc2ccco2)C(=O)c2ccc(Cl)cc2Cl)cc1 | inactive: -22.7% | 
5 | COc1ccc(CCNC(=O)Cn2nnc(-c3ccc(Cl)cc3)n2)cc1OC | inactive: 7.7% | 
6 | O=C(CSc1ccc(-c2cccs2)nn1)Nc1ccccc1 | inactive: -12.3% | 
7 | Cc1cccc(-c2nc(CCNC(=O)COc3ccccc3)cs2)c1 | inactive: 12.8% | 
8 | CN(C)CCNC(=O)c1ccc(-n2c(-c3ccccc3)cc3c2CCCCC3)cc1 | inactive: 12.4% | 
9 | CC(C)Oc1ccc(CN2CCc3nc(Nc4ccc5c(c4)OCCO5)ncc3C2)cc1 | inactive: 4.97% | 
10 | Cc1ccc(Sc2c(C(=O)NCc3cccc(F)c3)[nH]c3ccccc23)cc1 | inactive: 21.3% | 
11 | CC(NC(=O)CN1C(=O)COc2ccc(S(=O)(=O)N3CCCCCC3)cc21)c1ccccc1 (centres undefined) | inactive: 14.7% | 
12 | CCOCCCn1c(SCC(=O)Nc2cc(C)ccc2C)nc2c(oc3ccccc32)c1=O | inactive: 0.917% | 
13 | COC(=O)c1ccc(NC(=O)CN2CCCN(Cc3ccc(Cl)cc3)S2(=O)=O)cc1 | inactive: 3.82% | 
14 | Cc1ccc(-c2nc3cc(NC(=O)c4cc5ccccc5o4)ccc3o2)cc1Cl | inactive: 0.472% | 
15 | CCN1CCc2c(sc(NC(=O)c3ccc(S(=O)(=O)N(CCOC)CCOC)cc3)c2C(N)=O)C1 | inactive: 11.2% | 
16 | COc1ccc(CC(=O)NCCS(=O)(=O)N2CCN(c3ccccc3F)CC2)cc1OC | inactive: -2.63% | 
17 | Cc1ccc(C(=O)Nc2ccccc2C(=O)OCc2cc(=O)n3nc(C(C)C)sc3n2)cc1 | inactive: 9.69% | 
18 | Cc1ccc(Cl)cc1N1CCN(CCCNC(=O)Cn2ncc3c([nH]c4ccccc43)c2=O)CC1 | inactive: 2.12% | 
19 | Cc1ccc(C)c(NC(=O)CN(C)S(=O)(=O)c2cccc3cccnc23)c1 | inactive: 16.2% | 
20 | COC(=O)c1ccccc1NC(=O)C1=CC(c2ccc3c(c2)OCO3)=NS(=O)(=O)N1C | inactive: 1.76% | 
21 | Cc1ccc(CNc2nc3ccc(Cl)cc3n3cnnc23)cc1 | inactive: 2.67% | 
22 | CCc1cccc(C)c1Nc1c(-c2ccc(SC)cc2)nc2sccn12 | inactive: -7.96% | 
23 | O=C(CC1N=C2c3ccccc3N=C(SCc3ccc(F)cc3)N2C1=O)NC1CCCCC1 (centres undefined) | inactive: -28.4% | 
24 | Fc1ccc(-c2noc3ncnc(Nc4ccc(F)cc4F)c23)cc1 | inactive: -28.8% | 

Row | SMILES | activity change, negative = cytotoxicity | Potency
25 | Cc1cccc(NC(=O)Cn2c(=O)n(Cc3ccccc3)c(=O)c3sc4ccccc4c32)c1 | inactive: 12.5% | 
26 | CCOc1ccc(N(C(=O)c2ccc(Cl)cc2)S(=O)(=O)c2ccc3c(c2)n(C)c(=O)n3C)cc1 | inactive: 8.49% | 
27 | CCOc1ccc(CCNC(=O)c2cccc(Nc3nc4ccccc4nc3-n3nc(C)cc3C)c2)cc1OCC | inactive: 4.64% | 
28 | Cc1ccc(C)c(NC(=O)CSc2nc(-c3ccccc3)c(C#N)c(=O)[nH]2)c1 | inactive: 3.7% | 
29 | CCc1nc2ccccc2n2c(-c3ccc(C)cc3)c3c(=O)n(C)c(=O)n(C)c3c12 | inactive: -19.1% | 
30 | COc1ccc(-n2nc3ccc(NC(=O)c4c(OC)cccc4OC)cc3n2)cc1 | inactive: -2.07% | 
31 | O=C(Cn1c(=O)n(-c2ccc(F)cc2)c(=O)c2sc3ccccc3c21)NC1CCCC1 | inactive: 20.2% | 
32 | CCc1ccc2oc(C(=O)Nc3ccccc3OC)cc(=O)c2c1 | inactive: -2.37% | 
33 | NC(=O)C1CCN(C(=O)c2ccc3c(c2)N(Cc2cccc(Cl)c2)C(=O)c2ccccc2S3=O)CC1 (centres undefined) | inactive: 2.17% | 
34 | COc1ccc(CSc2nc3ccncc3n2CC(=O)Nc2cc(C)cc(C)c2)cc1 | inactive: 4.68% | 
35 | CCOC(=O)c1c(C)[nH]c(C)c1S(=O)(=O)NCC(=O)Nc1ccc(C)cc1C | inactive: -2.23% | 
36 | Cc1csc2nc(COC(=O)CNC(=O)c3ccc(F)cc3)cc(=O)n12 | inactive: -1.1% | 
37 | Cc1cccc(N2CCN(C(c3ccccc3)c3nnc(-c4ccccc4F)o3)CC2)c1C (centres undefined) | inactive: -3.12% | 
38 | Fc1ccc(Nc2nc(SCc3ccccc3Cl)nc3ccccc23)cc1 | inactive: -22.9% | 
39 | Cc1cc(C)cc(NC(=O)C2CCCN(S(=O)(=O)c3cccc4nsnc34)C2)c1 (centres undefined) | inactive: 0.569% | 
40 | COc1ccc(NC(=O)CSc2nc(-c3cccs3)cc(C(F)(F)F)n2)cc1Cl | inactive: 0.325% | 
41 | CCc1ccc(NCc2cc3ccc(OC)cc3n(CC(=O)Nc3ccccc3C)c2=O)cc1 | inactive: 22.4% | 
42 | CC(=O)c1cccc(NC(=O)CSc2nc3c(c(=O)[nH]2)CCC3)c1 | inactive: 3.86% | 
43 | CCc1ccc(C(=O)CC2(O)C(=O)N(CCc3ccccc3)c3ccc(Br)cc32)cc1 (centres undefined) | inactive: -18.4% | 
44 | CCCCN(CCCC)CCNC(=O)Cn1nc(CC)n2c(cc3sccc32)c1=O | inactive: 16.4% | 
45 | COC(=O)c1ccc(Cl)cc1NC(=O)Nc1nnc(N(C)C2CCCCC2)s1 | inactive: 6.27% | 
46 | CCc1ccccc1S(=O)(=O)Cc1ccc(C(=O)NCc2ccc(Cl)cc2)o1 | inactive: -14.4% | 
47 | Cc1ccc(CNC(=O)C(NS(=O)(=O)c2cccs2)C(C)C)cc1 (centres undefined) | inactive: 9.28% | 
48 | COc1ccc(CCC(=O)NCc2ccc3c(c2)CCN3C(=O)c2ccc(Cl)cc2)cc1 | inactive: -5.96% | 

Row | SMILES | activity change, negative = cytotoxicity | Potency
49 | Cc1ccc(CSC2=Nc3ccccc3C3=NC(CCC(=O)NC4CCCCC4)C(=O)N23)cc1 (centres undefined) | inactive: -4.21% | 
50 | COCc1cc(C)nc2sc(C(=O)Nc3ccccc3O)c(N)c12 | inactive: -1.92% | 
51 | Cc1ccc(OCCn2cc(C(=O)c3cccs3)c3ccccc32)cc1 | inactive: -4.82% | 
52 | CCOc1ccc(C2=NC(c3ccncc3)=Nc3ccc(C)cc3N2)cc1OCC | inactive: 3.07% | 
53 | CCCSCCCNC(=O)C1CCN(C(=O)c2cnn(-c3ccccc3)c2-n2cccc2)CC1 | inactive: -1.69% | 
54 | COc1ccc(CNC(=O)Cn2c(=O)nc(-c3ccccc3)c3cc(Cl)ccc32)cc1OC | inactive: 3.78% | 
55 | COc1ccccc1NC(=O)C1=C(C)Nc2c(C(=O)Nc3ccc(C)cc3)cnn2C1c1cccc(OC)c1OC (centres undefined) | inactive: 0.83% | 
56 | Cc1ccccc1NC(=O)c1cc2c(-c3ccccc3)nn(-c3ccccc3)c2s1 | inactive: -3.43% | 
57 | COc1ccc(N(Cc2ccccc2)C(=O)c2nc(S(C)(=O)=O)ncc2Cl)cc1 |  | active: 4.47 µM
58 | CCn1c2ccccc2c2nnc(N3CCN(c4cccc(Cl)c4)CC3)nc21 | inactive: 12.1% | 
59 | CCOC(=O)c1c(C)[nH]c(CCC(=O)NCc2ccc(OC)c(OC)c2)c1C | inactive: 3.37% | 
60 | COc1ccc(-c2noc(CCCC(=O)Nc3cccc(Cl)c3C)n2)cc1 | inactive: -17.7% | 
61 | Cc1ccc(CN2CCSc3ccc(C(=O)NCc4ccc(OC(C)C)cc4)cc32)cc1 | inactive: 21.5% | 
62 | CSc1nn(CC(=O)Nc2ccccc2F)c(N)c1S(=O)(=O)c1ccccc1 | inactive: 15.8% | 
63 | COc1ccc(CNC(=O)Cc2c(C)c3cc4c(C)coc4cc3oc2=O)cc1 | inactive: -0.228% | 
64 | Cc1ccc(N2CCn3c2nc2c3c(=O)n(C/C=C/c3ccccc3)c(=O)n2C)cc1C | inactive: 18.7% | 
65 | COCCCNC(=O)Cn1c(=O)n(-c2cccc(C)c2)c(=O)c2c1c1cc(C)ccc1n2C | inactive: 23.5% | 
66 | COc1cc(/C=C(\C#N)c2nc3ccccc3[nH]2)ccc1OCc1ccc(F)cc1 | inactive: -3.04% | 
67 | CCCN(CCC)CCCNC(=O)c1cnn(-c2ccc(F)cc2)c1-n1cccc1 | inactive: -3.78% | 
68 | Cc1nn(C(C)C(=O)Nc2ccc(C(C)C)cc2)c(=O)c2c1sc1ccccc12 (centres undefined) | inactive: 2.12% | 
69 | CC(NC(=O)C1CCN(S(=O)(=O)c2ccccc2)CC1)c1ccccc1 (centres undefined) | inactive: -4.39% | 
70 | Cc1ccccc1CNC(=O)C1=Cc2ccccc2OC1 | inactive: 1.79% | 
71 | Cc1cccc(-c2nn3c(=O)cc(CN4CCN(C(=O)c5ccccc5Br)CC4)nc3s2)c1 | inactive: -5.67% | 
72 | C#CC(C)(CC)NC(=O)Cn1nnc(-c2ccc(OCc3ccccc3C)cc2)n1 (centres undefined) | inactive: -26.7% | 

Row | SMILES | activity change, negative = cytotoxicity | Potency
73 | COc1ccccc1N1CCN(C(=O)c2cnn(-c3cccc(Cl)c3)c2C2CCN(C(=O)OC(C)(C)C)CC2)CC1 | inactive: -17% | 
74 | COc1ccccc1CNc1nc(-c2ccco2)nn1C(=O)c1cc(OC)c(OC)c(OC)c1 | inactive: 7.53% | 
75 | Cc1ccc(-c2nnc(Nc3ccc(OC(F)(F)Cl)cc3)c3ccccc23)cc1S(=O)(=O)NC(C)(C)CO | inactive: 1.19% | 
76 | CC(=O)N1CCc2c(sc3nc(SCC(C)C)n(-c4ccc(C)c(Cl)c4)c(=O)c23)C1 | inactive: 20.4% | 
77 | O=C(COc1ccccc1)N(Cc1cccnc1)c1nc2c(F)cccc2s1 | inactive: -1.13% | 
78 | Nc1ccc(NC(=O)c2cccc(C(=O)Nc3ccc(N)cc3Cl)c2)c(Cl)c1 | inactive: -2.63% | 
79 | CCCCn1c(=N)c(S(=O)(=O)c2ccc(C)cc2)cc2c(=O)n3cc(C)ccc3nc21 | inactive: 14% | 
80 | O=C(Nc1ccc(-c2nc3cc(NC(=O)c4ccc(F)cc4)ccc3o2)cc1)c1ccc(F)cc1 | inactive: 3.95% | 
81 | CCc1nn2c(=O)cc(COC(=O)c3ccc(NC(=O)CCc4ccccc4)cc3)nc2s1 | inactive: -3.69% | 
82 | Cc1c(C(=O)N2CCCC2)oc2c1-c1nn(CC(=O)NCc3ccccc3Br)cc1CC2 | inactive: -8.44% | 
83 | Cc1ccc(/C=C/c2onc(C)c2S(=O)(=O)N2CCC(C(=O)N3CCOc4ccc(C)cc43)CC2)cc1 | inactive: -4% | 
84 | COc1ccc(NC(=O)CCS(=O)(=O)c2nc(-c3ccc4c(c3)OCO4)cc(C(F)(F)F)n2)cc1 | inactive: 4.59% | 
85 | CSc1ccc(C2CC(=O)Oc3c2c(=O)n(C)c2ccccc32)cc1 (centres undefined) | inactive: -2.72% | 
86 | Cc1ccc2[nH]cc(S(=O)(=O)c3ccc(C)c(C)c3)c(=O)c2c1 | inactive: -6.51% | 
87 | Cc1ccc(F)cc1NC(=O)CCc1c(C)nn(-c2ccc(N3CCOCC3)nn2)c1C | inactive: -5.9% | 
88 | CC1Cn2c(C(=O)NCCc3ccc(Cl)cc3)cc3cccc(c32)S1 (centres undefined) | inactive: 1.45% | 
89 | Cc1cc(=O)n(C(C)C(=O)N2CCCc3ccccc32)c2c1c(C)nn2-c1ccccc1 (centres undefined) | inactive: -19.8% | 
90 | COc1ccc(-c2cc(C(=O)Oc3ccc(C)cc3)c3cc(C)ccc3n2)cc1 | inactive: -5.69% | 
91 | Cc1nn2c(-c3ccco3)ccnc2c1-c1ccc(Br)cc1 | inactive: 27.2% | 
92 | CCOc1ccc(C(=O)c2cn(CC(=O)Nc3cccc(OC)c3)c3cc4c(cc3c2=O)OCCO4)cc1 | inactive: -2.5% | 
93 | Cc1c(C(=O)N2CCCCC2)c(S(=O)(=O)NCc2ccc(N(C)C)cc2)c(C)n1C | inactive: 17.3% | 
94 | Cc1ccc(-c2cc(N)n(-c3ccc(C)cc3)n2)cc1 | inactive: -3.25% | 

Reference: PubChem BioAssay AID1508642 (National Center for Advancing Translational Sciences (NCATS), 2021)
